Assay results as given in patent US5304633A, “Fragments of lactoferrin having potent antimicrobial activity” (priority 1990, dated 1994).
At least one peptide structure holds a part that was inferred or is arguable (an end, a ring closure or a residue).

How the values were obtained:
Type in all cases: cell-based
[1] = system: Corynebacterium ammoniagenes JCM-1306; test: MIC in liquid medium (Experiment 12); conditions: culture at 30° C.
[2] = system: Listeria monocytogenes IDF-1b; test: MIC in liquid medium (Experiment 12); conditions: 37° C.
[3] = system: Staphylococcus haemolyticus JCM-2416T; test: MIC in liquid medium (Experiment 12); conditions: 37° C.
[4] = system: Bacillus circulans JCM-2504T; test: MIC in liquid medium (Experiment 12); conditions: 37° C.
[5] = system: Enterococcus faecalis ATCC-E19433; test: MIC in liquid medium (Experiment 12); conditions: for Minimum Inhibitory Concentration: 37° C.
[6] = system: Lactobacillus casei MMI-114; test: MIC in liquid medium (Experiment 12); conditions: PYG medium, culture at 30° C.
[7] = system: Streptococcus thermophilus ATCC-19258; test: MIC in liquid medium (Experiment 12); conditions: PYG medium, 37° C.
[8] = system: Streptococcus cremoris ATCC-9265; test: MIC in liquid medium (Experiment 12); conditions: PYG medium, culture at 30° C.
[9] = system: Streptococcus mutans JCM-5705T; test: MIC in liquid medium (Experiment 12); conditions: 37° C.
[10] = system: Streptococcus mutans JCM-5175; test: MIC in liquid medium (Experiment 12); conditions: PYG medium, 37° C.
[11] = system: Streptococcus mutans JCM-5176; test: MIC in liquid medium (Experiment 12); conditions: PYG medium, 37° C.
[12] = system: Proteus vulgaris JCM-1668T; test: MIC in liquid medium (Experiment 12); conditions: 37° C.
[13] = system: Pseudomonas aeruginosa IFO-3445; test: MIC in liquid medium (Experiment 12); conditions: 37° C.
[14] = system: Pseudomonas aeruginosa IFO-3448; test: MIC in liquid medium (Experiment 12); conditions: 37° C.
[15] = system: Candida albicans JCM-1542T; test: MIC in liquid medium (Experiment 12); conditions: culture at 30° C.
[16] = system: Aspergillus niger JCM5546; test: MIC against fungus, growth of hyphae (Experiment 14); conditions: no growth of hyphae after 20 hours
[17] = system: Penicillium pinophilum JCM5593; test: as above; conditions: no growth of hyphae after 20 hours
[18] = system: Penicillium vermiculatum JCM5594; test: as above; conditions: no growth of hyphae after 20 hours
[19] = system: Nannizzia incurvala JCM1906; test: as above; conditions: no growth of hyphae after 20 hours
[20] = system: Sporothrix cyanescens JCM2114; test: as above; conditions: no growth of hyphae after 20 hours
[21] = system: Bacillus subtilis ATCC-6633; test: Survival after 60 min with peptide (Experiment 13); conditions: peptide 31 μg/ml, PYG medium, 30° C.
Bacillus natto IFO-3009 = test: Survival after 60 min with peptide (Experiment 13); conditions: peptide 31 μg/ml, PYG medium, 30° C.
Bacillus careus MMI-272 = test: Survival after 60 min with peptide (Experiment 13); conditions: peptide 31 μg/ml, PYG medium, 30° C.
[22] = system: Streptococcus thermophilus ATCC-19258; test: Survival after 60 min with peptide (Experiment 13); conditions: peptide 31 μg/ml, PYG medium, 30° C.
[23] = system: Streptococcus bovis JCM-5672; test: Survival after 60 min with peptide (Experiment 13); conditions: peptide 31 μg/ml, PYG medium, 30° C.
[24] = system: Streptococcus mutans JCM-5175; test: Survival after 60 min with peptide (Experiment 13); conditions: peptide 31 μg/ml, PYG medium, 30° C.
[25] = system: Streptococcus mutans JCM-5176; test: Survival after 60 min with peptide (Experiment 13); conditions: peptide 31 μg/ml, PYG medium, 30° C.
[26] = system: Corynebacterium ammoniagenes JCM-1306; test: Survival after 60 min with peptide (Experiment 13); conditions: peptide 31 μg/ml, PYG medium, 30° C.
[27] = system: Corynebacterium renale JCM-1322; test: Survival after 60 min with peptide (Experiment 13); conditions: peptide 31 μg/ml, PYG medium, 30° C.
[28] = system: Corynebacterium diphtheriae JCM-1310; test: Survival after 60 min with peptide (Experiment 13); conditions: peptide 31 μg/ml, PYG medium, 30° C.
[29] = system: Staphylococcus aureus JCM-2413; test: Survival after 60 min with peptide (Experiment 13); conditions: peptide 31 μg/ml, PYG medium, 30° C.
[30] = system: Staphylococcus epidermidis JCM-2414T; test: Survival after 60 min with peptide (Experiment 13); conditions: peptide 31 μg/ml, PYG medium, 30° C.
[31] = system: Bifidobacterium bifidum ATCC-15696; test: Survival after 60 min with peptide (Experiment 13); conditions: peptide 31 μg/ml, PYG medium, anaerobic, 37° C.
[32] = system: Bifidobacterium longum ATCC-15707; test: Survival after 60 min with peptide (Experiment 13); conditions: peptide 31 μg/ml, PYG medium, anaerobic, 37° C.
Escherichia coli IID-861 = test: Survival after 60 min with peptide (Experiment 13); conditions: peptide 31 μg/ml, PYG medium, 30° C.
[33] = system: Pseudomonas aeruginosa MMI-603; test: Survival after 60 min with peptide (Experiment 13); conditions: peptide 31 μg/ml, PYG medium, 30° C.
[34] = system: Pseudomonas aeruginosa IFO-3445; test: Survival after 60 min with peptide (Experiment 13); conditions: peptide 31 μg/ml, PYG medium, 30° C.
[35] = system: Pseudomonas aeruginosa IFO-3446; test: Survival after 60 min with peptide (Experiment 13); conditions: peptide 31 μg/ml, PYG medium, 30° C.
[36] = system: Pseudomonas aeruginosa IFO-3448; test: Survival after 60 min with peptide (Experiment 13); conditions: peptide 31 μg/ml, PYG medium, 30° C.
[37] = system: Pseudomonas fluorescens IFO-14160; test: Survival after 60 min with peptide (Experiment 13)
[38] = system: Candida albicans JCM-2900; test: Survival after 60 min with peptide (Experiment 13); conditions: peptide 31 μg/ml, PYG medium, 30° C.

Compound: CC[C@H](C)[C@@H]1NC(=O)[C@H](CO)NC(=O)[C@@H]2CCCN2C(=O)[C@H](C)NC(=O)CNC(=O)[C@H](CC(C)C)NC(=O)[C@H](CCCCN)NC(=O)[C@H](CCCCN)NC(=O)[C@H](CCSC)NC(=O)[C@H](CCCNC(=N)N)NC(=O)[C@H](Cc2c[nH]c3ccccc23)NC(=O)[C@H](CCC(N)=O)NC(=O)[C@H](Cc2c[nH]c3ccccc23)NC(=O)[C@H](CCCNC(=N)N)NC(=O)[C@H](CCCNC(=N)N)NC(=O)[C@@H](NC(=O)[C@H](CCCCN)NC(=O)[C@@H](N)Cc2ccccc2)CSSC[C@@H](C(=O)N[C@H](C(=O)N[C@@H](CCCNC(=N)N)C(=O)N[C@@H](CCCNC(=N)N)C(=O)N[C@@H](C)C(=O)N[C@@H](Cc2ccccc2)C(=O)O)C(C)C)NC(=O)[C@H]([C@@H](C)O)NC1=O [antimicrobial peptide of Example 1]
- Minimum Inhibitory Concentration ([1]; PYG medium): 0.3 µg/mL
- Minimum Inhibitory Concentration ([1]; Peptone medium): 0.3 µg/mL
- Minimum Inhibitory Concentration ([2]; PYG medium): 2 µg/mL
- Minimum Inhibitory Concentration ([2]; Peptone medium): 0.6 µg/mL
- Minimum Inhibitory Concentration ([3]; PYG medium): 1 µg/mL
- Minimum Inhibitory Concentration ([3]; Peptone medium): 0.6 µg/mL
- Minimum Inhibitory Concentration ([4]; PYG medium): 0.6 µg/mL
- Minimum Inhibitory Concentration ([4]; Peptone medium): 0.3 µg/mL
- Minimum Inhibitory Concentration ([5]; PYG medium): > 60 µg/mL
- Minimum Inhibitory Concentration ([5]; Peptone medium): > 60 µg/mL
- resistance of the microorganism to the antimicrobial peptide (in words) ([5]; conditions of Experiment 12 (up to 60 μg/ml)): showed resistance
- Minimum Inhibitory Concentration [6]: 12 µg/mL
- Minimum Inhibitory Concentration [7]: 3 µg/mL
- Minimum Inhibitory Concentration [8]: 3 µg/mL
- Minimum Inhibitory Concentration ([9]; PYG medium): 6 µg/mL
- Minimum Inhibitory Concentration ([9]; Peptone medium): 2 µg/mL
- Minimum Inhibitory Concentration [10]: 6 µg/mL
- Minimum Inhibitory Concentration [11]: 3 µg/mL
- Minimum Inhibitory Concentration ([12]; PYG medium): 45 µg/mL
- Minimum Inhibitory Concentration ([12]; Peptone medium): 12 µg/mL
- Minimum Inhibitory Concentration ([13]; PYG medium): 18 µg/mL
- Minimum Inhibitory Concentration ([13]; Peptone medium): 6 µg/mL
- Minimum Inhibitory Concentration ([14]; PYG medium): 45 µg/mL
- Minimum Inhibitory Concentration ([14]; Peptone medium): 9 µg/mL
- Minimum Inhibitory Concentration ([15]; PYG medium): 24 µg/mL
- Minimum Inhibitory Concentration ([15]; Peptone medium): 18 µg/mL
- Minimum Inhibitory Concentration ([16]; PYG medium): > 60 µg/mL
- Minimum Inhibitory Concentration ([16]; Peptone medium): 30 µg/mL
- Minimum Inhibitory Concentration ([17]; PYG medium): 45 µg/mL
- Minimum Inhibitory Concentration ([17]; Peptone medium): 3 µg/mL
- Minimum Inhibitory Concentration ([18]; PYG medium): 45 µg/mL
- Minimum Inhibitory Concentration ([18]; Peptone medium): 6 µg/mL
- Minimum Inhibitory Concentration ([19]; PYG medium): 9 µg/mL
- Minimum Inhibitory Concentration ([19]; Peptone medium): 3 µg/mL
- Minimum Inhibitory Concentration ([20]; PYG medium): 18 µg/mL
- Minimum Inhibitory Concentration ([20]; Peptone medium): 9 µg/mL
- Live bacteria count in 1 ml after 60 min. [21]: < 100
- Live bacteria count in 1 ml after 60 min. (Bacillus natto IFO-3009): < 100
- Survival rate (Bacillus natto IFO-3009; 60 min): < 0.02%
- Live bacteria count in 1 ml after 60 min. (Bacillus careus MMI-272): 520
- Live bacteria count in 1 ml after 60 min. [22]: < 100
- Survival rate ([22]; 60 min): < 0.59%
- Live bacteria count in 1 ml after 60 min. [23]: 1.8 × 10^4
- Live bacteria count in 1 ml after 60 min. [24]: < 100
- Survival rate ([24]; 60 min): < 0.33%
- Live bacteria count in 1 ml after 60 min. [25]: 7600
- Live bacteria count in 1 ml after 60 min. [26]: < 100
- Survival rate ([26]; 60 min): < 0.04%
- Live bacteria count in 1 ml after 60 min. [27]: < 100
- Survival rate ([27]; 60 min): < 0.02%
- Live bacteria count in 1 ml after 60 min. [28]: 400
- Live bacteria count in 1 ml after 60 min. [29]: 9.0 × 10^5
- Live bacteria count in 1 ml after 60 min. [30]: 3900
- Live bacteria count in 1 ml after 60 min. [31]: 5.7 × 10^4
- Survival rate ([32]; 60 min): 7%
- Live bacteria count in 1 ml after 60 min. [32]: 3.1 × 10^4
- Live bacteria count in 1 ml after 60 min. (Escherichia coli IID-861): < 100
- Survival rate (Escherichia coli IID-861; 60 min): < 0.08%
- Live bacteria count in 1 ml after 60 min. [33]: 3900
- Live bacteria count in 1 ml after 60 min. [34]: 1100
- Live bacteria count in 1 ml after 60 min. [35]: < 100
- Survival rate ([35]; 60 min): < 0.04%
- Live bacteria count in 1 ml after 60 min. [36]: 3900
- Live bacteria count in 1 ml after 60 min. ([37]; Pseudomonas fluorescens IFO-14160, peptide 31 μg/ml, PYG medium, 30° C.): 3.4 × 10^6
- resistance of the microorganism to the antimicrobial peptide (in words) ([37]; Pseudomonas fluorescens IFO-141602, conditions of Experiment 13 (31 μg/ml, 60 minutes)): showed resistance
- Live bacteria count in 1 ml after 60 min. [38]: 2100
